Experimental data as given in the BET-seq Pho4 binding data (Le et al. 2018).
The other results are listed elsewhere or left out. The energies were worked out here from pooled read counts, against the library average; single values are noisy.

target: T1, Pho4 (S. cerevisiae) (UniProt P07270); assay: relative binding free energy (BET-seq); higher = weaker binding; settings: reference: library average
T1 sequence: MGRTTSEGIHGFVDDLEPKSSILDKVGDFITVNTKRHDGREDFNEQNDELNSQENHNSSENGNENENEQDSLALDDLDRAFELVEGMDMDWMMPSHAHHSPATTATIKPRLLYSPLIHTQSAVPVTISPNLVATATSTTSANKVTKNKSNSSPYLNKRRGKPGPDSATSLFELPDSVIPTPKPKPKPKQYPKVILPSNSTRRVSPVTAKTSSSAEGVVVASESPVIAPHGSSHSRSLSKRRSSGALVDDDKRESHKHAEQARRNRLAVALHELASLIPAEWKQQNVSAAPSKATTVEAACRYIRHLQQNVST

Row | Sequence | relative binding free energy
1 | ATTGTCACGTGTTGGA | 0 kcal/mol
2 | TTATTCACGTGTTAAG | 0.23 kcal/mol
3 | TCTAACACGTGGTTGT | -0.01 kcal/mol
4 | TGCAACACGTGGGTGG | -0.28 kcal/mol
5 | ATAGACACGTGTGTTT | 0.13 kcal/mol
6 | TTTGTCACGTGCAGAT | 0.12 kcal/mol
7 | GGGCGCACGTGGGGAC | -0.08 kcal/mol
8 | AAATGCACGTGGTGAA | -0.08 kcal/mol
9 | AGGTTCACGTGGGCAG | 0.15 kcal/mol
10 | GGGTTCACGTGGCAGA | 0.24 kcal/mol
11 | ATGAACACGTGTTTGA | -0.04 kcal/mol
12 | GGAGTCACGTGGAGAT | 0.15 kcal/mol
13 | GTTGTCACGTGCGGCG | 0.18 kcal/mol
14 | AGTGACACGTGGGATG | -0.11 kcal/mol
15 | GGTGACACGTGTGCGC | 0.16 kcal/mol
16 | GTGAACACGTGTTGAG | -0.02 kcal/mol
17 | TATTGCACGTGTAGTA | -0.01 kcal/mol
18 | GCATTCACGTGTGGGT | 0.33 kcal/mol
19 | GTTTTCACGTGTATGT | 0.26 kcal/mol
20 | TGTTACACGTGGTAAG | 0.05 kcal/mol
21 | CTTTACACGTGTAATG | 0.2 kcal/mol
22 | TTTATCACGTGTAGCT | 0.13 kcal/mol
23 | ATTATCACGTGGTACA | 0.1 kcal/mol
24 | TGTCGCACGTGCGTGT | -0.11 kcal/mol
25 | TATGTCACGTGGTGCT | -0.01 kcal/mol

Row | Sequence | relative binding free energy
26 | TTCTGCACGTGATCGG | 0.06 kcal/mol
27 | GATCGCACGTGGTGGA | -0.2 kcal/mol
28 | TGTGACACGTGCGCTG | -0.1 kcal/mol
29 | AGTTACACGTGTGTGC | 0.1 kcal/mol
30 | AGGGGCACGTGCCGTG | -0.04 kcal/mol
31 | TTTTGCACGTGCTCGT | -0.15 kcal/mol
32 | AGGAGCACGTGTGTAA | -0.11 kcal/mol
33 | TGTGGCACGTGTACAG | -0.07 kcal/mol
34 | GGGGGCACGTGAATTG | 0.3 kcal/mol
35 | GAGTCCACGTGTGGGT | 0.24 kcal/mol
36 | CTAATCACGTGGTTGT | -0.01 kcal/mol
37 | CTTTGCACGTGCGTGT | -0.13 kcal/mol
38 | TGATGCACGTGGGGGG | -0.16 kcal/mol
39 | TTGAGCACGTGTGTAT | -0.03 kcal/mol
40 | AAGGGCACGTGGTCGG | -0.2 kcal/mol
41 | ATCATCACGTGGTAGT | 0.22 kcal/mol
42 | TGGCGCACGTGATTCG | 0.21 kcal/mol
43 | AGAGTCACGTGCGGGC | 0.08 kcal/mol
44 | AGTGACACGTGAATGA | 0.18 kcal/mol
45 | GAACGCACGTGGCGGG | -0.12 kcal/mol
46 | AGCTGCACGTGTGGGT | -0.02 kcal/mol
47 | TATGCCACGTGAGGTA | 0.18 kcal/mol
48 | ATGATCACGTGGGTTC | 0.08 kcal/mol
49 | AGGTTCACGTGGGGCT | 0.17 kcal/mol
50 | AGGGCCACGTGCGGGG | -0.16 kcal/mol

Row | Sequence | relative binding free energy
51 | CTAGTCACGTGGTATT | 0.08 kcal/mol
52 | AGAAGCACGTGACGGG | 0.06 kcal/mol
53 | TAGATCACGTGATTTT | 0.14 kcal/mol
54 | GGTCGCACGTGGTAGC | -0.04 kcal/mol
55 | GTGTTCACGTGTAGGC | 0.22 kcal/mol
56 | GGGAGCACGTGCGTAG | -0.07 kcal/mol
57 | CGGGGCACGTGTAGGT | -0.11 kcal/mol
58 | TGACTCACGTGTAGTA | 0.16 kcal/mol
59 | TTGACCACGTGGAGTG | -0.21 kcal/mol
60 | TTTATCACGTGTATGA | 0.01 kcal/mol
61 | TTGGCCACGTGGTGGG | -0.05 kcal/mol
62 | TATTTCACGTGGAAAT | 0.28 kcal/mol
63 | TCTGGCACGTGATGGC | 0.04 kcal/mol
64 | ATCAGCACGTGGTGGC | -0.1 kcal/mol
65 | GTTTCCACGTGTTGGT | 0.19 kcal/mol
66 | GGACTCACGTGGCTGT | 0.24 kcal/mol
67 | GAGCGCACGTGGATGG | -0.13 kcal/mol
68 | GTTGTCACGTGTTCGG | 0.22 kcal/mol
69 | TGGTTCACGTGCATGG | 0.35 kcal/mol
70 | GTGGGCACGTGCTTTG | -0.02 kcal/mol
71 | TTGAGCACGTGGGTTA | -0.22 kcal/mol
72 | GCTGTCACGTGGTGCG | -0.02 kcal/mol
73 | AGTGTCACGTGGGAGA | -0.06 kcal/mol
74 | ATTATCACGTGGGCTG | -0.12 kcal/mol
75 | TGGCACACGTGCGTGT | 0.05 kcal/mol

Row | Sequence | relative binding free energy
76 | GTGTGCACGTGAGGCT | 0.28 kcal/mol
77 | CAGGGCACGTGTGTGT | -0.02 kcal/mol
78 | CGGGGCACGTGACTTG | 0.16 kcal/mol
79 | CTTGTCACGTGGGCCG | 0.03 kcal/mol
80 | GGTTACACGTGTGTCG | 0.15 kcal/mol
81 | TATTTCACGTGTATTT | 0.29 kcal/mol
82 | GATTCCACGTGGGTTG | 0.11 kcal/mol
83 | ATAAGCACGTGGAGAT | -0.01 kcal/mol
84 | CTTTGCACGTGGAGAT | 0.04 kcal/mol
85 | CGCTTCACGTGAGGTG | 0.58 kcal/mol
86 | AGTATCACGTGGGTAG | 0.01 kcal/mol
87 | ATTGACACGTGTATTT | -0.05 kcal/mol
88 | ATCAGCACGTGAGGAT | 0.25 kcal/mol
89 | AGGCGCACGTGTTTAG | -0.05 kcal/mol
90 | GGGGGCACGTGGGCCA | -0.12 kcal/mol
91 | ATTAGCACGTGTTTGA | -0.1 kcal/mol
92 | GTGGGCACGTGGGTGA | -0.17 kcal/mol
93 | GGTGACACGTGGCTGG | 0.02 kcal/mol
94 | CTGTTCACGTGGCATT | 0.27 kcal/mol
95 | AGTAGCACGTGGGCCG | -0.18 kcal/mol
96 | TGGAGCACGTGCGGAA | -0.06 kcal/mol
97 | AGTCTCACGTGTTAGG | 0.25 kcal/mol
98 | TGTGGCACGTGTATTT | 0.03 kcal/mol
99 | TCACTCACGTGTTTTG | 0.33 kcal/mol
100 | TGTAACACGTGTTGTT | -0.09 kcal/mol

Row | Sequence | relative binding free energy
101 | TGGGCCACGTGATGTC | 0.21 kcal/mol
102 | CTTTGCACGTGCGATT | 0.06 kcal/mol
103 | TGGCACACGTGGTGGT | 0.1 kcal/mol
104 | TGCATCACGTGGTGTA | 0.04 kcal/mol
105 | GATATCACGTGTTGCT | 0.14 kcal/mol
106 | TGTTACACGTGATTTG | 0.26 kcal/mol
107 | GAGTGCACGTGGTACT | -0.08 kcal/mol
108 | TTTTTCACGTGGTGCT | 0.32 kcal/mol
109 | TGTGTCACGTGAAGTC | 0.32 kcal/mol
110 | AGGCTCACGTGATTTA | 0.23 kcal/mol
111 | TTTGGCACGTGAGTTC | 0.25 kcal/mol
112 | ACGGGCACGTGTTAGT | -0.2 kcal/mol
113 | TAGGTCACGTGCGGAT | 0.02 kcal/mol
114 | CTGCGCACGTGGGTGT | -0.31 kcal/mol
115 | TATTGCACGTGTTCGT | 0.01 kcal/mol
116 | CGTATCACGTGCGGGG | 0.04 kcal/mol
117 | AGTAACACGTGGGTAT | -0.21 kcal/mol
118 | TGGTGCACGTGTGACG | -0.06 kcal/mol
119 | TTAGACACGTGGTTGC | -0.05 kcal/mol
120 | AGTTTCACGTGAGCAA | 0.37 kcal/mol
121 | GCCGTCACGTGGTGTG | 0.12 kcal/mol
122 | AGGGTCACGTGGCAGG | 0 kcal/mol
123 | CATTACACGTGAGGTG | 0.22 kcal/mol
124 | ATGAGCACGTGCTGGT | -0.26 kcal/mol
125 | CTTGACACGTGTTGAT | 0.07 kcal/mol

Row | Sequence | relative binding free energy
126 | GTCGGCACGTGGTGAA | -0.12 kcal/mol
127 | AGTGACACGTGCATTG | -0.02 kcal/mol
128 | CTTTTCACGTGGAGTG | 0.1 kcal/mol
129 | GGGCTCACGTGGTAAT | 0.24 kcal/mol
130 | GGCGTCACGTGGGGAA | -0.14 kcal/mol
131 | TATTGCACGTGTCTGG | 0.11 kcal/mol
132 | CTGTGCACGTGGTGCG | -0.1 kcal/mol
133 | GGCAACACGTGGTATG | -0.06 kcal/mol
134 | TGATCCACGTGTGGAG | 0.22 kcal/mol
135 | ATAATCACGTGGAGGG | 0.15 kcal/mol
136 | GAGTACACGTGGTGCT | 0.13 kcal/mol
137 | AATTGCACGTGGCTGT | 0.05 kcal/mol
138 | TTGGTCACGTGGGAAA | 0.02 kcal/mol
139 | TATTTCACGTGAGTGA | 0.33 kcal/mol
140 | TGCTTCACGTGTTTCA | 0.33 kcal/mol
141 | TTGTGCACGTGGATGT | 0.06 kcal/mol
142 | AAGTCCACGTGTTAGG | 0.14 kcal/mol
143 | GGTCACACGTGCGGTG | 0.14 kcal/mol
144 | GTGGGCACGTGTGGCA | -0.06 kcal/mol
145 | TGAGGCACGTGCCGTT | -0.18 kcal/mol
146 | GTACGCACGTGCAGGT | 0.04 kcal/mol
